Experimental data from PubChem BioAssay AID2451 (National Center for Advancing Translational Sciences (NCATS), 2010).
About 2,100 (0.72%) of roughly 290,000 compounds were called active. This list was built around the results that the source calls inconclusive (neither active nor inactive); the mix of calls is not that of the screen. Calls come from the whole dose curve; as a rule, active = well fitted inhibition curve with a large enough effect; inconclusive = small, poorly fitted or top-dose-only effect, or effect the other way; inactive = flat fitted curve, though single readings scatter. A potency beside an inconclusive call is a rough fit, not a confirmed value.

molecular target: Fructose-bisphosphate aldolase (Giardia intestinalis (strain ATCC 50803 / WB clone C6)) (UniProt A8B2U2); test: qHTS Assay for Inhibitors of Fructose-1,6-bisphosphate Aldolase from Giardia Lamblia; details: purified Giardia FBPA; activity, negative = inhibition: at 59.6 µM (top of the series) unless noted; note: nearly all actives have a fitted effect of over 55% in size
Sequence of UniProt A8B2U2 (A8B2U2 whole entry, looked up): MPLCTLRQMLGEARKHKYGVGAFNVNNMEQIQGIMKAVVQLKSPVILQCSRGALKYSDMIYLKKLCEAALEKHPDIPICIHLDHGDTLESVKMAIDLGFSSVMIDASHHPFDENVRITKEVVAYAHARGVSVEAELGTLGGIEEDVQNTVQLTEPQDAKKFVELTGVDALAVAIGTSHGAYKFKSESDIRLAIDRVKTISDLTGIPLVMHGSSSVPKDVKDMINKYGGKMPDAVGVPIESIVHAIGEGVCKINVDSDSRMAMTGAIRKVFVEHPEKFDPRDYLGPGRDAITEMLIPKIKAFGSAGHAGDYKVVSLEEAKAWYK
Outline: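 Giardia FBPA (40 nM reagent) was preincubated 10 min at RT with compound (up to 57.5 uM final), then substrate plus GAPDH/TPI/NAD/arsenate coupling system with diaphorase/resazurin was added; resorufin fluorescence (525/598 nm) was read after 20 min.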
% is set by controls: 0 for no effect and ±100 for the full control effect; potency is the fitted concentration of half-maximal effect; tags give direction and shape of the fitted curve.

| SMILES | Potency | activity, negative = inhibition |
| --- | --- | --- |
| NS(=O)(=O)c1ccc(NC(=S)N2CCC(O)CC2)cc1 | active: 15.8 µM | – |
| c1ccc(-c2cn3c(n2)CCC3)cc1 | – | inactive: 1.55% |
| Cc1ccc(C)c2[nH]c(=O)c(CCNC(=O)c3ccc(S(=O)(=O)N(C)C)cc3)cc12 | – | inactive: 5.84% |
| Cc1ccc(NS(=O)(=O)Cc2ccccc2)nc1 | inconclusive: 22.3 µM [inhibitor, single point] | – |
| CCCC(=O)Nc1ccc(NC(=O)C2CC2)cn1 | – | inactive: 3.64% |
| COc1ccc(OC)c(C2C(C(=O)Nc3ccc(F)cc3)=C(C)Nc3nc(CCCO)nn32)c1 (centres undefined) | inconclusive: 15.8 µM [inhibitor, partial curve] | – |
| COc1ccc(Cl)cc1NC(=O)C(C)N1CCN(C/C=C/c2ccccc2)CC1 (centres undefined) | inconclusive: 15.8 µM [inhibitor, single point] | – |
| CC1=CC(C)(C)NC(=S)N1NC(=O)c1ccccc1Cl | inconclusive: 17.7 µM [inhibitor, single point] | – |
| O=C(CCC(=O)c1cccs1)NCc1ccc(F)cc1 | inconclusive: 31.5 µM [activator, single point] | – |
| CC(=O)N[C@@H](C)c1nc2ccccc2n1CCCN1CCN(c2nc(-c3ccc(C)cc3)cs2)CC1 | inconclusive: 31.6 µM [inhibitor, single point] | – |
| O=C(/C=C/c1cccc([N+](=O)[O-])c1)c1cccs1 | – | inactive: 1.39% |
| c1ccc2c(c1)Nc1ccncc1S2 | inconclusive: 15.8 µM [inhibitor, partial curve] | – |
| CC1=C2C(=COC(C)C2C)C(=O)C(C(=O)O)=C1O (centres undefined) | inconclusive: 11.2 µM [inhibitor, partial curve] | – |
| C[C@@H](C(=O)O)c1ccc(-c2ccccc2)c(F)c1 | inconclusive: 35.4 µM [activator, partial curve] | – |
| CC(Cc1ccc(O)c(O)c1)C(C)Cc1ccc(O)c(O)c1 (centres undefined) | inconclusive: 22.3 µM [inhibitor, partial curve] | – |
| Nc1nonc1-n1nnc(C(=O)N/N=C/c2ccccc2F)c1CN1CCc2ccccc21 | – | inactive: -7.34% |
| CCC1CCCCN1S(=O)(=O)c1ccc(C(=O)Nc2nnc(C3CC3)o2)cc1 (centres undefined) | active: 25.1 µM | – |
| COC(=O)C1=C(C)OC(N)=C(C#N)C1c1cc2cccc(C)c2nc1Cl (centres undefined) | inconclusive: 28.1 µM [inhibitor, single point] | – |
| Cc1sc2ncnc(OCC(=O)N3CC(=O)Nc4ccccc43)c2c1C | – | inactive: 4.66% |
| O=C(NCc1ccc(F)cc1)C(c1ccc(Cl)cc1)N(C(=O)c1csnn1)C1CC1 (centres undefined) | – | inactive: 2.47% |
| CCOC(=O)N1CCN(C(=O)c2cccc(OC)c2O)CC1 | inconclusive: 6.29 µM [inhibitor, full curve] | – |
| CC1=C(n2nnc([N+](=O)[O-])n2)C(c2cccnc2)C(C#N)=C(N)O1 (centres undefined) | active: 5 µM | – |
| CN(C)S(=O)(=O)c1cccc(NC(=S)N/N=C/c2ccc(O)c(O)c2O)c1 | active: 15.8 µM | – |
| Cc1c(O)ccc(C(=O)CN2CCN(Cc3ccccc3)CC2)c1O | inconclusive: 31.6 µM [inhibitor, partial curve] | – |
| CCCCNc1nc2c(c(=O)n(C)c(=O)n2C)n1CCC | – | inactive: 6.57% |
| Cc1ccccc1C(=O)Nc1sc2c(c1C(=O)O)CCC2 | inconclusive: 31.5 µM [inhibitor, single point] | – |
| COc1ccc(C(=O)Nc2nnc(C(F)(F)F)s2)cc1 | inconclusive: 15.8 µM [inhibitor, partial curve] | – |

| SMILES | Potency | activity, negative = inhibition |
| --- | --- | --- |
| Cc1ccc(-n2c(O)c(C=NCc3ccccn3)c(=O)[nH]c2=S)cc1 | inconclusive: 35.4 µM [inhibitor, single point] | – |
| Cc1ccc(N2CCN(c3ccc(C)cc3)C2c2ccccn2)cc1 | inconclusive: 35.4 µM [inhibitor, single point] | – |
| CN(C)/C=C/C(=O)c1ccc(Cl)cc1 | – | inactive: 0.734% |
| O=C(NC(=S)NCCN1CCOCC1)c1ccc(F)cc1 | – | inactive: -0.197% |
| O=C(N/N=C/c1ccc(OCc2ccccc2)cc1)c1ccco1 | – | inactive: 0.997% |
| O=C(NC(=S)Nc1ncc(Br)cc1Br)c1cncc(Br)c1 | inconclusive: 11.2 µM [inhibitor, partial curve] | – |
| Nc1ccc2nc3c(=O)[nH]c(=S)[nH]c3nc2c1 | active: 3.54 µM | – |
| O=P(NS(=O)(=O)c1ccc(Cl)cc1)(Oc1ccccc1)Oc1ccccc1 | inconclusive: 19.9 µM [activator, single point] | – |
| C=CC1CN2CCC1CC2[C@@H](OC(=O)c1ccc(OC)cc1)c1ccnc2ccccc12 (some centres undefined) | – | inactive: 8.58% |
| CCOc1ccc2c(c1)n([O-])c1c([n+]2=O)CCCC1 | active: 14.1 µM | – |
| COc1cc(S(=O)(=O)NCCN2CCOCC2)ccc1-n1cnnn1 | active: 17.7 µM | – |
| COc1ccc(C(=O)/C=C/Nc2cc(C)on2)c(OC)c1 | – | inactive: 7.64% |
| O=Cc1ccccc1OCc1ccc2c(c1)OCO2 | – | inactive: 5.7% |
| O=C(CN1CCc2ccccc2C1)Nc1ccc(OC(F)(F)F)cc1 | – | inactive: -1.51% |
| COc1ccc(NC(=S)N2CCC(c3nc4ccccc4[nH]3)CC2)c(OC)c1 | inconclusive: 39.8 µM [inhibitor, partial curve, poor fit] | – |
| CC(C(=O)Nc1cccc([N+](=O)[O-])c1)[n+]1ccccc1 (centres undefined) | active: 15.8 µM | – |
| CCn1c(C)cc(/C=C2/NC(=O)N(Cc3ccccc3F)C2=O)c1C | – | inactive: -15.8% |
| COc1ccc(-c2[nH]nc3c2C(c2ccccc2OC(=O)N2CCOCC2)C(C#N)=C(N)O3)cc1 (centres undefined) | inconclusive: 14.1 µM [inhibitor, partial curve] | – |
| CC1(C)CC2(CC(c3ccccc3F)c3ccc(O)c(O)c3O2)NC(=S)N1 (centres undefined) | inconclusive: 7.06 µM [inhibitor, partial curve] | – |
| O=C(Nc1ccc(Cl)cc1)N1CCC(c2ccccc2)C1 (centres undefined) | – | inactive: -10.8% |
| CC(C)(C)NC(=O)CN(C(=O)Cn1nnc(-c2ccc(Cl)cc2)n1)C1CCN(Cc2ccccc2)CC1 | – | inactive: -0.284% |
| Cc1ccc(C(=O)[C@@H]2[C@H]3C4COC(O4)C(=O)[C@@H]3[C@H]3C=Cc4ccccc4N32)cc1 (some centres undefined) | inconclusive: 17.7 µM [inhibitor, partial curve] | – |
| Cc1ccc(C=C2C(=O)c3ccccc3C2=O)s1 | – | inactive: -18% |
| Cc1cc(=O)[nH]c(N/N=C/c2cccc([N+](=O)[O-])c2)n1 | inconclusive: 14.1 µM [inhibitor, partial curve] | – |
| Nc1ccc2nc(CCc3ccccc3)[nH]c2c1 | inconclusive: 15.8 µM [inhibitor, partial curve] | – |
| COC(=O)N1CCC[C@@]2(CCN(c3ccncc3)C2)C1 | – | inactive: 1.94% |
| O=C(N/N=C/C(Cl)=C\c1ccccc1)c1cnccn1 | – | inactive: -9.79% |

| SMILES | Potency | activity, negative = inhibition |
| --- | --- | --- |
| O=C1C2=C(Nc3ccccc3SC2c2ccco2)c2ccccc21 (centres undefined) | inconclusive: 14.1 µM [inhibitor, partial curve] | – |
| O=C(Oc1ccccc1C(=O)Nc1ccccc1)c1ccc(Br)c([N+](=O)[O-])c1 | – | inactive: 0.525% |
| O=C(NCc1ccco1)c1cnccn1 | – | inactive: -16.8% |
| O=C(NC(=S)N1CCN(C/C=C/c2ccccc2)CC1)c1ccco1 | inconclusive: 17.7 µM [inhibitor, single point] | – |
| CC(=O)c1cccc(OCC(O)CN2CC=C(c3ccccc3)CC2)c1 (centres undefined) | inconclusive: 25.1 µM [inhibitor, partial curve] | – |
| O=C(CSc1cccc[n+]1[O-])Nc1cccc(S(=O)(=O)NC2=NCCCCC2)c1 | – | inactive: 1.82% |
| c1ccc(C(CN2CCOCC2)c2ccccc2)cc1 | inconclusive: 19.9 µM [inhibitor, single point] | – |
| COc1ccc(CN2CCCC(C(=O)N3CCCC3)C2)c(OC)c1 (centres undefined) | inconclusive: 15.8 µM [inhibitor, partial curve] | – |
| O=c1ccn(-c2cccc(C(F)(F)F)c2)nc1-c1ccn(-c2ccccc2F)n1 | active: 15.8 µM | – |
| Cc1cc(N/N=C/c2ccc(O)cc2O)c2ccccc2n1 | inconclusive: 39.8 µM [activator, single point] | – |
| Cc1ncsc1CCCl | inconclusive: 31.5 µM [inhibitor, single point] | – |
| C=CCN(CC=C)CCCOc1ccc(C)cc1OC | inconclusive: 14.1 µM [inhibitor, partial curve] | – |
| CCc1c(O)nc(SC2CC(=O)N(c3ccc(F)c(Cl)c3)C2=O)[nH]c1=O (centres undefined) | active: 3.16 µM | – |
| CCN(CC)CCCNC(=O)c1ccc2c(Cl)c3c(nc2c1)CCCC3 | – | inactive: 4.8% |
| CSc1ccccc1NC(=O)CNCCCN1CCOCC1 | inconclusive: 17.7 µM [inhibitor, partial curve] | – |
| Cn1c(-c2ccccc2)c(O)c(=O)c2ccccc21 | – | inactive: -3.99% [at 12.9 µM] |
| CCOC(=O)c1cnc(-c2ccccc2)nc1Oc1ccc(OC)cc1 | inconclusive: 15.8 µM [inhibitor, single point] | – |
| CCc1ccc(NC(=S)NC2CC3CCC(C2)N3Cc2ccco2)cc1 (centres undefined) | – | inactive: 9.54% |
| Cc1ccc2cccnc2c1NC(=S)NC(=O)c1ccccc1 | inconclusive: 12.6 µM [inhibitor, partial curve] | – |
| Cc1ccc(N=c2c([N+](=O)[O-])nn(-c3ccc4c(c3)OCCO4)n2O)c(Cl)c1 | – | inactive: -7.8% |
| C=CCn1c(-c2cnn(-c3ccccc3)c2N)n[nH]c1=S | inconclusive: 7.06 µM [inhibitor, partial curve] | – |
| Cc1cc2ncn(S(=O)(=O)c3ccc(F)cc3)c2cc1C | inconclusive: 39.8 µM [inhibitor, single point] | – |
| CCOC(=O)c1nnn(-c2nonc2N)c1-c1ccc(C)cc1 | – | inactive: -7.81% |
| Cc1ccc(N(CC(O)CN2CCCC2)S(=O)(=O)c2ccccc2)cc1 (centres undefined) | inconclusive: 28.1 µM [inhibitor, single point] | – |
| CC(=O)c1ccc2c(c1)C1C=CCC1C(c1ccncc1)N2 (centres undefined) | inconclusive: 11.2 µM [inhibitor, partial curve] | – |
